Laboratory results as given in the RNAGym collection of RNA variant scans (doi:10.1073/pnas.2313332121).
This sample is rich in variants without activity.

B1: TPR 5TU (parent)
chain: GGAUCUUCUCGAUCUAACAAAAAAGACAAAUCUGCCACAAAGCUUGAGAGCAUCUUCGGAUGCAGAGGCGGCAGCCUUCGGUGGCGCGAUAGCGCCAACGUUCUCAACUAUGACACGCAAAACGCGUGCUCCGUUGAAUGGAGUUUAUCAUG

Variants of: B1
Experiment: polymerase ribozyme fitness, log enrichment relative to wild type (log ratio); higher = more active; in vitro selection for triplet polymerase activity
In short: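 After PCR construction and transcription, each subunit's mutant library from a heterodimeric triplet polymerase ribozyme was annealed with a biotinylated primer, the partner subunit and triplets. Incubation was frozen, at −7 °C, and extended constructs were gel-excised, bound to streptavidin beads and amplified by RT-PCR, in one selection round done in triplicate. Fitness is the logarithm of a genotype's enrichment divided by that of the wild type, from inverse-variance-weighted replicate averages of Illumina-sequenced inputs and outputs. The base of the logarithm is 2, and genotypes needed ≥10 input reads and ≥1 read per output.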

| Variant | polymerase ribozyme fitness (log ratio) |
| --- | --- |
| GGAUCUUCUCGAGCUAACAACAAAGACAAAUCUGCCACAAAGCUUGGGAGUAUCUUCGGAUGCAGAGGCGGCAGCCUUCGGUGGCGCGAUAACGCCAACGUUCUCAACUAUGACACGCAGAACGCGUGCUCCGUUGAAUGGAGUUUAUCAUG | ≤ -4.2 |
| GGAUCUUCUCGAGCUAACAAUCAAGACAAAUCUGCCACAAAGCUUGAGAGCAUCUUCGGAUGCAGAGGCGGCAGCCUUCGGGGGCGCGAUAUCGCCACCGUUCUCAACUAUGACAUGCAAAACGCGUGCUCCGUUGAAUGGAGUUUAUCAUG | -1.59 |
| GGAUCUUCUCGAGCUAACAAUCAAGACAAAUCUGCCACAAAGCUUGAGAGCAUCUUCGGAUGCAGAGGCGGCAGCCUUCGGGGGCGCGAUAUCGCCACCGUUCUCAACUAUGACAUGCAAAACGCGUGCUCCGUUAAAUGGAGUUUAUCAUG | -4.02 |
| GGAUCUUCUCGAGCUAACAAUAAAGACAAAUCUGCCACAAAGCUUGAGCGCAUCUUCGGAUGCAGAGGCGGCAGCCUUCGGUGGCGCGAUAGCGCCAACGUUCUCAACUAUGACACGCAAAACGCGUGCUCCGUUGAAUGGAGUUUAUCAUG | ≤ -4.2 |
| GGAUCUUCUCGAGCUAACAAUAAAGACAAAUCUGCCACAAAGCUUGAGAGCAUCUUUGGAUGCAGAGACGGCUGCCUUCGGUGGCGCGAUACCGCCAACGUUAUCAACUAUGACACGCAAAACGCGUGCUCCGUUGAAUGGAGUUUAUCAUG | ≤ -4.2 |
| GGAUCUUCUCGAGCUAACAAUAAAGACAAAUCUGCCACAAAGCUUGAGAGCAUCUUCGGAUGCAGAGGCGGCAGCCUUCGGUGGCGCGAUAGCGCUAACGUUCUCAACUAUGACACGCAAAACGCGUGCUCCCUUGAAUGGAGUUUCUCAUG | -4.05 |
| GGAUCUUCUCGAGCUAACAAAGAAGACAAAUCUGCCACAAAGCUUGAGAGCAUCUUCGGAUGCAGAGGCGGCAGCCAUCGGUGGCGCGAUAGCGUCAACGUUCUCAACUAUGACGCGCAAAACGCGUGUUCCGUUGAAUGGAGUUUAUCAUG | ≤ -4.2 |
| GGAUCUUCUCGAGCUAACAAAUAAGACAAAUCUGCCACAAAGCUUGAGAGCAUCUUCGGAUGCAGAGGCGGCAGCCUUCAGUGGCGCGAUAGUGCCAACGUUCUCAACUAUGACACGAAAAACGCGUGCUCCGUUGAAUGGAGUUUAUCAUG | ≤ -4.2 |
| GGAUCUUCUCGAGCUAACAAAACAGACAAAUCUGCCACAAAGCUUGAGAGCAUCUUCGGAUACAGAGGCGGCAGCCUUCGGUGACGCGAUAGCGCCAACGUUCUCAACUAUGACACGCAAAACGCGUGCUCCGUUGAAUGGAGUUUAUCAUG | ≤ -4.2 |
| GGAUCUUCUCGAGCUAACAAAAGAGACAAAUCUGCCACAAAGCUUGAGAGCAUCUUCGGAUGCAGAGGCGGCGGCCUUCGGUGGCGCGAUAGCUCCAACGUUCUCAACUAUGACACUCAAAACGCGUGCUCCGUUGAAUGCCGUUCAUCAUG | ≤ -4.2 |
| GGAUCUUCUCGAGCUAACAAAAGAGACAAAUCUGCCACAAAGCUUGAGAGAAUCUUCGGAUGCAGAGGCGGCAGCGUUCGGUGGCGCGAUUGCGCCAACGUUCUCAACUAUGACACGCAAAACGCGUGCUCCGUUGAAUGGAGUUUAUCAUG | ≤ -4.2 |
| GGAUCUUCUCGAGCUAACAAAAUAGACAAAUCUGCCACAAAGCUUGAGAGCAUCUUCGGAUGCGGAGGCGGCAGCUUUCGGUGGCGCGAUAGCGCAAACGUUCUCAACUAUGACACGCAAAACGCGUGCUCCGUUGAAUGGAGUUUAUCAUG | ≤ -4.2 |
| GGAUCUUCUCGAGCUAACAAAAUAGACAAAUCUGCCACAAAGCUUGAGAGAAUCUUCGGAUGCAGAGUCGGCAGCCUUCAGUGUCGCGAUAGCGCCAACGUUCUCAACUAUGACACGCAAAACGCGUGCUCCGUUGAGUGGAGUUUAACAUG | ≤ -4.2 |
| GGAUCUUCUCGAGCUAACAAAAACGACAAAUCUGACACAAAGCUUGAGUGCAUCUUCGGAUGCAGAGGCGGCAGCGUUCGGUGGCGCGAUCGCGCCAACGUUCUCAACUAUGACACGCAAAACGCGUGCUCCGUUGAAUGGAGUUUAUCAUG | ≤ -4.2 |
| GGAUCUUCUCGAGCUAACAAAAAGGACAAAUCUGCCACAAAGCUUGAGAGCAUCUUCGGAUGCAGAGGCGGCAGCCUUCGGUGGCGCGAUAGCGCCAACGUUCUCAACUAUGACACGCAAAACGCGUGCUCCGUUGAAUGGACUUUAUCAUG | ≤ -4.2 |
| GGAUCUUCUCGAGCUAACAAAAAUGACUUAUCUGCCACAAAGCUUGAGAGCAUUUUCGGAUGCAGAGGAGGCAGCGUUCGGUGGCGCGAUAGCUCCCACGUUCUCAACUAUGACACGCAAAACGCGUGCUCCGUCGAAUGGAGUUUAUCAUG | ≤ -4.2 |
| GGAUCUUCUCGAGCUAACAAAAAUGACAAAUCUGCCGCAAAGCUUGAGAGCAUCUUCGGAUGCAGAGGCGGCAGCCUUCGGUGGCGCGAUAGCGCCAACGUUCUCAACUAUGACACGCAAAACGCGUGCUCCGCUGAAUGGAGUUUAUCAUG | -4.14 |
| GGAUCUUCUCGAGCUAACAAAAAUGACAAAUGUGCCACAAAGCUUGAGAGCAUCUUCGGAUGCAGAGGCGGCAGCCAUCGGUGGCGCGAUAGCGCCAACGUUCUCAACUAUGACACGCAAGACGCGUGCUCCGUUGAAUGGGGUUUAUCAUG | ≤ -4.2 |
| GGAUCUUCUCGAGCUAACAAAAAUGACAAAUCUGCCACAAAGCUUGAGAGCAUCUUUGAAUGCAGAGGCGGCAGCCUUCGGUGGCGCGAUAGCGCCAACGUUCUCAACUAUGACACGCAAAACGCGUGCUCCGGUGAAUGGAGUUUAUCAUG | ≤ -4.2 |
